{"source": "PubChem BioAssay AID624417", "about": "(National Center for Advancing Translational Sciences (NCATS), 2012)", "note": "Out of some 410,000 compounds screened, about 6,400 (1.6%) were called active. Inconclusive means that the source gave no clear call. Such entries were picked first, then a sample of the others. Calls come from the whole dose curve; as a rule, active = well fitted inhibition curve with a large enough effect; inconclusive = small, poorly fitted or top-dose-only effect; inactive = no such curve, though single readings can be large or run the other way. No potency is given beside an inconclusive call; the fits are too rough.", "data": [{"molecular_target": "Glucagon-like peptide 1 receptor (Homo sapiens) (UniProt P43220)", "sequence (P43220 whole entry, looked up)": "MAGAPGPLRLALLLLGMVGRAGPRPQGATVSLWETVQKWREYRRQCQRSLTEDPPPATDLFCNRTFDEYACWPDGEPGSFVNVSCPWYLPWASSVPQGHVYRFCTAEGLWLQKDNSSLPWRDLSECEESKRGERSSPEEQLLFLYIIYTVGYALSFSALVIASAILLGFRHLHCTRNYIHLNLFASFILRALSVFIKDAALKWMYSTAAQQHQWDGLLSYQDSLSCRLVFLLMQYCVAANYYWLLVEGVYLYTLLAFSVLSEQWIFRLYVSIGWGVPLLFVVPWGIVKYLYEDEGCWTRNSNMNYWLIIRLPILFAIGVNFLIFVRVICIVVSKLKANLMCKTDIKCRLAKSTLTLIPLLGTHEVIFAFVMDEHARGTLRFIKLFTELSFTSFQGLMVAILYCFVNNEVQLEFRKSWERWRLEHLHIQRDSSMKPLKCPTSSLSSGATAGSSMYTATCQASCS", "experiment": "qHTS of GLP-1 Receptor Inverse Agonists (Inhibition Mode); note: nearly all actives have a fitted effect of over 55% in size; note: potency is the fitted concentration of half-maximal effect; tags give direction and shape of the fitted curve", "conditions": "HEK293 GLP-1R CRE-luciferase, luminescence, 24 h, GLP-1R form is constitutively active; series mostly up to 38.3 µM", "in_short": "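Readout was luciferase luminescence, measured 12 min after detection reagent at room temperature. Beforehand, GLP-1R reporter HEK293 cells had sat 12 h, then received compounds for 24 hr at 37 deg C.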", "values": [{"compound": "CSc1ccccc1NC(=O)CN1c2ccccc2CC1C", "note": "(stereo not drawn)", "Potency": "inconclusive [inhibitor, single point]"}, {"compound": "CS(=O)(=O)c1cc([N+](=O)[O-])c(Sc2nc3ccccc3[nH]2)c([N+](=O)[O-])c1", "Potency": "inconclusive [inhibitor, single point]"}, {"compound": "CCCCCCCCCC(=O)NNC(=O)c1c(O)c2ccccc2n(CC)c1=O", "Potency": "inactive"}, {"compound": "COC(=O)c1ccc(CSc2ccccc2NC(=S)Nc2cccc(C(F)(F)F)c2)o1", "Potency": "inconclusive [inhibitor, partial curve, poor fit]"}, {"compound": "O=C(NC1CC(=O)N(c2ccc(Cl)cc2)C1)C(=O)c1c[nH]c2ccccc12", "note": "(stereo not drawn)", "Potency": "inactive"}, {"compound": "O=C(Nc1ccccc1Cl)c1sccc1-c1ccccc1", "Potency": "inconclusive [inhibitor, partial curve, poor fit]"}, {"compound": "CC1=NN(C(N)=S)C(=O)C1N=Nc1ccccc1Cl", "note": "(stereo not drawn)", "Potency": "inconclusive [inhibitor, partial curve, poor fit]"}, {"compound": "Cc1cc(C)cc(NC(=S)Nc2cccc3ccccc23)c1", "Potency": "inconclusive [inhibitor, single point]"}, {"compound": "Cc1cc(C)n(-c2nc(NCCN(C)C)c3c4c(sc3n2)CCCC4)n1", "Potency": "inconclusive [inhibitor, full curve, poor fit]"}, {"compound": "Cc1ccc(NC(=O)c2c(C)nn(-c3ccccc3)c2Cl)cc1", "Potency": "inconclusive [inhibitor, single point]"}, {"compound": "Cc1ccc(C(=O)N2CC(C)CC(C)C2)cc1S(=O)(=O)N1CCCCC1", "note": "(stereo not drawn)", "Potency": "inconclusive [inhibitor, partial curve, poor fit]"}, {"compound": "CC1CCCC(C)N1CCCNC(=O)c1ccc2nc(N3CCCCC3)sc2c1", "note": "(stereo not drawn)", "Potency": "inconclusive [inhibitor, single point]"}, {"compound": "CCc1ccccc1NC(=O)CCc1c(C)nc2cc(-c3ccccc3)nn2c1C", "Potency": "inactive"}, {"compound": "CCN(CC)C(=O)C1CCN(Cc2cn(C)nc2-c2ccc(Oc3ccccc3)cc2)CC1", "Potency": "inconclusive [inhibitor, single point]"}, {"compound": "Cc1ccc(Nc2ccc(N3CCN(C(=O)c4ccc([N+](=O)[O-])cc4Cl)CC3)nn2)cc1", "Potency": "inconclusive [inhibitor, single point]"}, {"compound": "Cc1ccc(S(=O)(=O)N2CCN(CC(=O)N/N=C\\c3ccc(Cl)c([N+](=O)[O-])c3)CC2)cc1", "Potency": "inactive"}, {"compound": "COc1ccc(/C=C(\\NC(=O)c2ccccc2)C(=O)OCC2CCCN3CCCCC23)cc1OC", "note": "(stereo not drawn)", "Potency": "inconclusive [inhibitor, partial curve]"}, {"compound": "Cc1ccc(NC(=S)N2CCN(Cc3ccccc3)CC2)cc1", "Potency": "inconclusive [inhibitor, partial curve, poor fit]"}, {"compound": "C=CCn1c(SCC(=O)NC2CCCC2)nnc1-c1ccncc1", "Potency": "inactive"}, {"compound": "COc1ccc(-c2cc3ccccc3n2CC(O)CN2CCN(CCO)CC2)cc1", "note": "(stereo not drawn)", "Potency": "active: 10 µM"}, {"compound": "CCn1c(=N)n(CC(=O)c2cccc([N+](=O)[O-])c2)c2ccccc21", "Potency": "inactive"}, {"compound": "COC(=O)[C@@]1(Cc2ccc(F)cc2)[C@H]2c3cc(C(=O)N4CCCC4)n(CCCNc4ncc(C(F)(F)F)cc4Cl)c3C[C@H]2CN1C(=O)c1ccccc1", "Potency": "inconclusive [inhibitor, partial curve, poor fit]"}, {"compound": "CCOC(=O)c1sc(Nc2nc3c(F)cccc3s2)cc1C", "Potency": "inactive"}, {"compound": "CCN(CC(=O)Nc1cc(Cl)ccc1C)C(=O)c1oc2ccc(OC)cc2c1C", "Potency": "inconclusive [inhibitor, partial curve, poor fit]"}, {"compound": "CCOC(=O)C1CCCN(CCC(=O)Nc2ccc(C)cc2)C1", "note": "(stereo not drawn)", "Potency": "inactive"}, {"compound": "COc1cccc(Nc2nc(C(N)CO)cs2)n1", "note": "(stereo not drawn)", "Potency": "inconclusive [inhibitor, single point]"}, {"compound": "O=C(NCCc1c[nH]c2ccccc12)c1[nH]c(C(F)(F)F)nc1-c1ccccc1", "Potency": "inconclusive [inhibitor, single point]"}, {"compound": "O=S(=O)(ON(c1ccccc1)S(=O)(=O)c1ccccc1)c1ccccc1", "Potency": "inconclusive [inhibitor, single point]"}, {"compound": "COc1ccc(Oc2ccc(N/C=C/C(=O)C(C)(C)C)cc2)cc1", "Potency": "inconclusive [inhibitor, single point]"}, {"compound": "CC1=NN(Cc2ccccc2)C(=O)C1C(c1ccccc1)C(C#N)C#N", "note": "(stereo not drawn)", "Potency": "inactive"}, {"compound": "COc1cc(NC(=O)C2CCCN(S(=O)(=O)c3cn(C)cn3)C2)cc(OC)c1", "note": "(stereo not drawn)", "Potency": "inactive"}, {"compound": "CCOC(=O)c1sc(C)c(C(=O)NCC(C)(C)CN(C)C)c1N", "Potency": "inconclusive [inhibitor, partial curve, poor fit]"}, {"compound": "CCOC(=O)Nc1ccc2c(c1)N(C(=O)CCN1CCOCC1)c1ccccc1S2=O", "note": "(stereo not drawn)", "Potency": "inactive"}, {"compound": "COc1ccc(CCN(Cc2cc3cc(C)cc(C)c3nc2Cl)C(=O)C2CC2)cc1", "Potency": "inconclusive [inhibitor, partial curve, poor fit]"}, {"compound": "O=C(/C=C/c1ccccc1)Nc1ncn[nH]1", "Potency": "inconclusive [inhibitor, single point]"}, {"compound": "COc1ccc(-c2nsc(NC(=O)c3ccccc3Br)n2)cc1", "Potency": "inactive"}, {"compound": "CCOC(=O)c1cnc2c(C(F)(F)F)cccc2c1NCCCN1CCOCC1", "Potency": "inconclusive [inhibitor, single point]"}, {"compound": "OC(c1ccc(F)c(F)c1)c1ncc(-c2cccc(C(F)(F)F)c2)[nH]1", "note": "(stereo not drawn)", "Potency": "inconclusive [inhibitor, partial curve, poor fit]"}, {"compound": "O=C(/C=C/c1cccc([N+](=O)[O-])c1)n1cnc2ccccc21", "Potency": "inactive"}, {"compound": "O=C(NCC(c1cccnc1)N1CCN(c2ccc(F)cc2)CC1)c1ccc(F)cc1", "note": "(stereo not drawn)", "Potency": "inconclusive [inhibitor, partial curve, poor fit]"}, {"compound": "Cc1ccc2sc(C)[n+](CCCS(=O)(=O)[O-])c2c1", "Potency": "inactive"}, {"compound": "Cc1ccc(S(=O)(=O)N[C@H](C(=O)OCC(=O)NC(=O)c2cccn2C)C(C)C)cc1", "Potency": "inconclusive [inhibitor, single point]"}, {"compound": "O=C1c2ccccc2-c2nnc(-c3ccccc3)cc21", "Potency": "inactive"}]}]}
